Each structure is given as a SMILES string. The list shows a part of the results. Repeats are few or missing, and single values can be far off.

Among the test systems are A101D; A2058; A375.
Test in all cases: cell count relative to DMSO control; melanoma cells; higher = more viable cells
Holding throughout (settings): library dose: standard library concentration; 72 h
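Also: cells treated in 1,536-well plates, then fixed and DAPI-stained, with nuclei counted from automated high-throughput microscope images.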

With `O=C(O)c1ccc2c(c1)nc(Nc1cccc(Cl)c1)c1ccncc12` + COCC[n+]1c2c(n(Cc3cnccn3)c1C)C(=O)c1ccccc1C2=O [YM155] (first compound 2 µM, partner dose 0.002 µM), the cell count in the assay with A101D is 78.8%; with A2058, 28.9%; in the assay with A375, 79.9%.

`O=C(O)[C@@H]1[O][Sb](=[O])([O][Sb]2(=[O])[O][C@H]([C@H](O)CO)[C@H](O)[C@H](C(=O)O)[O]2)[O][C@H]([C@H](O)CO)[C@@H]1O` (some centres undefined) [stibogluconate] + CC(C)(C)c1cnc(CSc2cnc(NC(=O)C3CCNCC3)s2)o1 [SNS-032] (first compound 10 µM, partner dose 0.05 µM): the values for the cell count in the assay on A101D, in the assay with A2058 and in the assay on A375 were 86.9%, 77.6% and 122%, respectively.

On to `Cn1nnc2c(C(N)=O)ncn2c1=O` [temozolomide] + O=C(O)c1ccc(-c2c[nH]c3ncc(-c4ccccc4)cc23)cc1C1CCCC1 [GSK650394] (first compound 10 µM, partner dose 0.8 µM), for which the cell count in the assay with A101D came out at 66.7%; in the assay on A2058, 45.2%; in the assay with A375 it was 114%.

In the case of `O=C(O)c1ccc2c(c1)nc(Nc1cccc(Cl)c1)c1ccncc12` + COc1ccc(Cl)c(Nc2nc3ccccc3nc2NS(=O)(=O)c2cccc(NC(=O)C(C)(C)N)c2)c1 [XL147] (first compound 2 µM, partner dose 4 µM), the cell count in the assay with A101D came out at 100%; in the assay with A2058, 91%; in the assay with A375, 70.7%.

In the case of `O=C(O)c1ccc2c(c1)nc(Nc1cccc(Cl)c1)c1ccncc12` + COc1cc(Nc2ncc(F)c(Nc3ccc4c(n3)NC(=O)C(C)(C)O4)n2)cc(OC)c1OC [Tamatinib] (first compound 2 µM, partner dose 2 µM), the values for the cell count with A101D, with A2058 and in the assay with A375 were 28.2%, 74.2% and 84.8%, respectively.

For `O=C(O)[C@@H]1[O][Sb](=[O])([O][Sb]2(=[O])[O][C@H]([C@H](O)CO)[C@H](O)[C@H](C(=O)O)[O]2)[O][C@H]([C@H](O)CO)[C@@H]1O` (some centres undefined) [stibogluconate] + O=C(Nc1cccc(Cl)c1)Nc1ncc(CCNc2ncnc3ccsc23)s1 [SNS314] (first compound 10 µM, partner dose 0.004 µM), the cell count came out at 71.9% in the assay with A101D, 65.5% with A2058 and 127% in the assay with A375.

For the compound `O=C(O)c1ccc2c(c1)nc(Nc1cccc(Cl)c1)c1ccncc12` + COc1cc2c(Oc3ccc4[nH]c(C)cc4c3F)ncnc2cc1OCCCN1CCCC1 [cediranib] (first compound 2 µM, partner dose 2 µM), the cell count in the assay with A101D stood at 73.2%; with A2058 it was 69.8%; with A375, 87.6%.

With `O=C(Nc1cc(C(F)(F)F)cc(C(F)(F)F)c1)c1cc(Cl)ccc1O` + Cn1sc(=O)n(Cc2ccccc2)c1=O [TDZD-8] (first compound 0.08 µM, partner dose 2 µM), the cell count turned out to be 89.7% in the assay on A101D, 113% in the assay with A2058 and 78.1% in the assay on A375.

Consider `O=C(O)c1ccc2c(c1)nc(Nc1cccc(Cl)c1)c1ccncc12` + Cc1nc(Nc2ncc(C(=O)Nc3c(C)cccc3Cl)s2)cc(N2CCN(CCO)CC2)n1 [dasatanib] (first compound 2 µM, partner dose 0.02 µM), for which the cell count with A101D is 65.8%; in the assay with A2058, 39.3%; in the assay with A375 it was 70.3%.

In the case of `Cc1cc(N2CCOCC2)cc2[nH]c(-c3c(NC[C@@H](O)c4cccc(Cl)c4)cc[nH]c3=O)nc12` + NCC(=O)Nc1ccc(-n2nc(C(F)(F)F)cc2-c2ccc3c(ccc4ccccc43)c2)cc1 [OSU03012] (first compound 1 µM, partner dose 5 µM), the cell count in the assay with A101D amounted to 97.3%; in the assay with A2058 it was 112%; in the assay with A375, 55.2%.

With `O=C(O)[C@@H]1[O][Sb](=[O])([O][Sb]2(=[O])[O][C@H]([C@H](O)CO)[C@H](O)[C@H](C(=O)O)[O]2)[O][C@H]([C@H](O)CO)[C@@H]1O` (some centres undefined) [stibogluconate] + O=C(O)c1ccc(-c2c[nH]c3ncc(-c4ccccc4)cc23)cc1C1CCCC1 [GSK650394] (first compound 10 µM, partner dose 0.8 µM), the cell count amounted to 87.4% in the assay with A101D, 102% with A2058 and 117% in the assay with A375.

In the case of `O=C(Nc1cc(C(F)(F)F)cc(C(F)(F)F)c1)c1cc(Cl)ccc1O` + COc1ccc2c(c1)CCC1C2CCC2(C)C(NCCCCCCN3C(=O)C=CC3=O)CCC12 [U73122] (first compound 0.08 µM, partner dose 2 µM), the cell count with A101D was determined as 61.3%; in the assay with A2058, 90.7%; in the assay with A375 it was 114%.

On to `O=C(Nc1cc(C(F)(F)F)cc(C(F)(F)F)c1)c1cc(Cl)ccc1O` + CN(c1ncccc1CNc1nc(Nc2ccc3c(c2)CC(=O)N3)ncc1C(F)(F)F)S(C)(=O)=O [PF562271] (first compound 0.08 µM, partner dose 0.4 µM), for which the cell count was found to be 86.2% with A101D, 78.6% with A2058 and 67.7% in the assay on A375.

For the compound `O=C(O)[C@@H]1[O][Sb](=[O])([O][Sb]2(=[O])[O][C@H]([C@H](O)CO)[C@H](O)[C@H](C(=O)O)[O]2)[O][C@H]([C@H](O)CO)[C@@H]1O` (some centres undefined) [stibogluconate] + C#Cc1cccc(Nc2ncnc3cc(OCCOC)c(OCCOC)cc23)c1 [erlotinib] (first compound 10 µM, partner dose 4 µM), the values for the cell count in the assay with A101D, in the assay with A2058 and in the assay on A375 were 59.4%, 76.4% and 137%, respectively.

With `O=C(Nc1cc(C(F)(F)F)cc(C(F)(F)F)c1)c1cc(Cl)ccc1O` + O=c1[nH]nc(Sc2ncc([N+](=O)[O-])s2)n1-c1ccc2c(c1)OCCO2 [BI78D3] (first compound 0.08 µM, partner dose 1 µM), the figures for the cell count in the assay with A101D, in the assay with A2058 and in the assay with A375 were 90.7%, 115% and 89.3%, respectively.

As for `O=C(O)[C@@H]1[O][Sb](=[O])([O][Sb]2(=[O])[O][C@H]([C@H](O)CO)[C@H](O)[C@H](C(=O)O)[O]2)[O][C@H]([C@H](O)CO)[C@@H]1O` (some centres undefined) [stibogluconate] + Nc1cccc2c1CN(C1CCC(=O)NC1=O)C2=O [lenalidomide] (first compound 10 µM, partner dose 5 µM), the cell count in the assay on A101D was found to be 93.2%; in the assay on A2058, 77.3%; in the assay on A375, 113%.

On to `Cn1nnc2c(C(N)=O)ncn2c1=O` [temozolomide] + CN(C)S(=O)(=O)c1ccc2c(c1)/C(=C/c1cc3c([nH]1)CCCC3)C(=O)N2 [SU6656] (first compound 10 µM, partner dose 2 µM), for which the cell count turned out to be 74.1% in the assay with A101D, 57.7% in the assay with A2058 and 150% with A375.

Take `O=C(O)c1ccc2c(c1)nc(Nc1cccc(Cl)c1)c1ccncc12` + Cc1cc([N+](=O)[O-])ccc1NS(=O)(=O)c1cc(Cl)ccc1Cl [FH535] (first compound 2 µM, partner dose 5 µM): the cell count in the assay with A101D amounted to 64.3%; in the assay with A2058, 75.1%; in the assay with A375, 87%.

Consider `O=C(O)[C@@H]1[O][Sb](=[O])([O][Sb]2(=[O])[O][C@H]([C@H](O)CO)[C@H](O)[C@H](C(=O)O)[O]2)[O][C@H]([C@H](O)CO)[C@@H]1O` (some centres undefined) [stibogluconate] + C[C@@H]1CCN(C(=O)CC#N)C[C@@H]1N(C)c1ncnc2[nH]ccc12 [CP690550] (first compound 10 µM, partner dose 5 µM), for which the figures for the cell count in the assay with A101D, in the assay on A2058 and in the assay with A375 were 91.4%, 92.7% and 123%, respectively.

Take `O=C(O)c1ccc2c(c1)nc(Nc1cccc(Cl)c1)c1ccncc12` + Cc1cc(N2CCOCC2)cc2[nH]c(-c3c(NC[C@@H](O)c4cccc(Cl)c4)cc[nH]c3=O)nc12 [BMS536924] (first compound 2 µM, partner dose 1 µM): the figures for the cell count in the assay on A101D, in the assay with A2058 and with A375 were 103%, 87.5% and 82.7%, respectively.

Regarding `O=C(O)c1ccc2c(c1)nc(Nc1cccc(Cl)c1)c1ccncc12` + Cn1nnc2c(C(N)=O)ncn2c1=O [temozolomide] (first compound 2 µM, partner dose 10 µM), the figures for the cell count in the assay with A101D, with A2058 and with A375 were 67.3%, 32.7% and 66.9%, respectively.

For the compound `O=C(Nc1cc(C(F)(F)F)cc(C(F)(F)F)c1)c1cc(Cl)ccc1O` + C[C@]1(c2nc3c(C(N)=O)cccc3[nH]2)CCCN1 [Veliparib] (first compound 0.08 µM, partner dose 7 µM), the cell count with A101D turned out to be 102%; with A2058 it was 71.1%; in the assay with A375 it was 97.2%.

In the case of `O=C(Nc1cc(C(F)(F)F)cc(C(F)(F)F)c1)c1cc(Cl)ccc1O` + NC1(c2ccc(-c3nc4ccn5c(=O)[nH]nc5c4cc3-c3ccccc3)cc2)CCC1 [MK2206] (first compound 0.08 µM, partner dose 2 µM), the cell count in the assay on A101D was found to be 81.6%; in the assay with A2058, 107%; in the assay on A375, 99.2%.

Consider `Cn1nnc2c(C(N)=O)ncn2c1=O` [temozolomide] + COc1cc(Nc2ncc(F)c(Nc3ccc4c(n3)NC(=O)C(C)(C)O4)n2)cc(OC)c1OC [Tamatinib] (first compound 10 µM, partner dose 2 µM), for which the cell count in the assay on A101D was 32.4%; with A2058 it was 45.2%; in the assay with A375, 99.6%.

Consider `O=C(Nc1cc(C(F)(F)F)cc(C(F)(F)F)c1)c1cc(Cl)ccc1O` + CC1(C)CCC(c2ccc(Cl)cc2)=C(CN2CCN(c3ccc(C(=O)NS(=O)(=O)c4ccc(N[C@H](CCN5CCOCC5)CSc5ccccc5)c(S(=O)(=O)C(F)(F)F)c4)cc3)CC2)C1 [ABT263] (first compound 0.08 µM, partner dose 2 µM), for which the cell count with A101D was 60.4%; in the assay with A2058, 99.2%; in the assay on A375, 75.7%.

For the compound `O=C(Nc1cc(C(F)(F)F)cc(C(F)(F)F)c1)c1cc(Cl)ccc1O` + O=C(Nc1cccc(Cl)c1)Nc1ncc(CCNc2ncnc3ccsc23)s1 [SNS314] (first compound 0.08 µM, partner dose 0.004 µM), the figures for the cell count in the assay on A101D, with A2058 and in the assay on A375 were 90.1%, 89.3% and 131%, respectively.

With `Cn1nnc2c(C(N)=O)ncn2c1=O` [temozolomide] + Oc1nc(-c2ccc(C(F)(F)F)cc2)nc2c1CSCC2 [XAV939] (first compound 10 µM, partner dose 10 µM), the cell count in the assay with A101D came out at 69.4%; in the assay with A2058, 41.5%; in the assay on A375, 114%.

`O=C(O)[C@@H]1[O][Sb](=[O])([O][Sb]2(=[O])[O][C@H]([C@H](O)CO)[C@H](O)[C@H](C(=O)O)[O]2)[O][C@H]([C@H](O)CO)[C@@H]1O` (some centres undefined) [stibogluconate] + NCC(=O)Nc1ccc(-n2nc(C(F)(F)F)cc2-c2ccc3c(ccc4ccccc43)c2)cc1 [OSU03012] (first compound 10 µM, partner dose 5 µM): the cell count came to 102% in the assay with A101D, 103% in the assay on A2058 and 58.4% in the assay on A375.

These data come from the supplement of paper PMC4604168 (melanoma cell lines).
